Reference: ChEMBL document CHEMBL4888484, “Replenishing the malaria drug discovery pipeline: Screening and hit evaluation of the MMV Hit Generation Library 1 (HGL1) against asexual blood stage Plasmodium falciparum ,using a nano luciferase reporter read-out” (2022)
Screen size: about 150,000 compounds; about 540 (0.36%) showed an effect of 50% or more. This is one part of the list.

Test system: Plasmodium falciparum
Assay: Primary screen in NF54 nanoGlo assay, in single point, at 2uM, 72h; a lower Z score goes with more inhibition
Format: functional, Erythrocyte
Details: timepoint 72 hour

SMILES | % Inhibition [%] | Z score
CCc1cnc(CCN[C@@H](C)Cc2ccsc2)s1 | 12 | -1.71
Cc1ccc(C)n1[C@@H](Cc1cnc[nH]1)C(=O)O | -1 | 0.15
CNCCc1cccc(Br)c1 | -10 | 1.55
O=C(c1cc[nH]n1)N1C[C@H](c2cccc(F)c2F)[C@@H]2[C@H]1C1CCN2CC1 | 0 | -0.08
O=C(Nc1ccc(Cl)cc1C(=O)c1ccccc1F)c1ccc2ncsc2c1 | -2 | 0.28
CCc1ccc(CN(C)CCN2C[C@@H]3CC[C@H]2C3)nc1 | -13 | 2.18
c1ccc2c(c1)CC(N1C3CCC1c1cn[nH]c1C3)C2 (configuration not stated) | 2 | -0.27
CCCCN1C(=N)C(CC)(CC)C(=O)NC1=O | -19 | 2.64
CC1(C)C(C(=O)NC(C#N)C2CCOC2)C1(C)C (configuration not stated) | -12 | 1.21
Cc1ccnc([C@H](C2CC2)n2cc(Cn3c(=O)oc4ccccc43)nn2)c1 | -3 | 0.37
Cc1nn(C(C)C)c(C)c1CN(C)C(=O)[C@H](C)N1CCCC1=O | -12 | 1.27
CCOCCN1C[C@@H]2CC[C@H]1CN(Cc1ccccn1)C2 | -1 | 0.17
CC(ON1CC1(C(F)(F)F)C(F)(F)F)(C(N)=O)C(N)=O (configuration not stated) | -3 | 0.52
CN1C[C@H](c2ccc(F)cc2)[C@@H](C(=O)c2cccnc2)[C@]12C(=O)Nc1ccccc12 | -16 | 2.05
O=C(Cc1c[nH]c2ccccc12)N1CCN(CCC2OCCO2)CC1 | -10 | 1.24
Cc1nc(C(C)C)sc1C(=O)N1CCC2(CC1)OCCO2 | -3 | 0.39
CCCC(=O)c1cn(Cc2nc(-c3cccnn3)no2)c2ccccc12 | -2 | 0.47
CCc1ncnc(N2CCN3CCOC[C@]3(CO)C2)c1F | 0 | 0.01
CN1[C@@H]2CC[C@H]1CN(CC(=O)Nc1ccc(Cl)cn1)CC2 | 0 | -0.03
CCCS(=O)(=O)N1CC[C@@]2(C1)C(=O)Nc1ccc(OC)cc12 | -13 | 1.66
Cc1cc(C)c(CNc2nc3ccccc3o2)c(=O)[nH]1 | -1 | 0.18
CC(Cc1ccsc1)NCC(C)(O)c1cccs1 (configuration not stated) | -11 | 1.47
C=CCN(C)C[C@H]1CN2CC[C@H]1C[C@@H]2CNC(=O)Nc1ccc(OC(F)(F)F)cc1 | 57 | -4.08

SMILES | % Inhibition [%] | Z score
CC(C)(C)C(=O)Nc1ccncc1C(=O)N1CCN2CCC1C2 (configuration not stated) | -9 | 1.22
CC1CN(C)C(C)C2c3ccccc3NC12 (configuration not stated) | -9 | 1.33
Cn1c(-c2ccc(Cl)cc2)c(-c2c(O)n(C)c(=O)n(C)c2=O)n(C)c1=O | 3 | -0.45
CC1(C)COC2(CCN(C(=O)C3CC3C3CCC3)CC2)OC1 (configuration not stated) | 1 | -0.07
CCCCn1nc(C)c(C(=O)N[C@@H](C)c2ccc3c(c2)OCCCO3)c1Cl | -8 | 1.37
CC1CC1C(=O)N1CCOC(CS(=O)(=O)F)C1 (configuration not stated) | -12 | 1.9
CCCS(=O)(=O)CC(=O)Nc1ccc(C#N)c(C(F)(F)F)c1 | -3 | 0.53
c1ccc2c(CCNCC3CCCCC3)c[nH]c2c1 | -14 | 1.99
O=C(CN1CCOCC1)c1ccc(C2CCCC2)cc1 | 3 | -0.43
Cc1nc(CN2CC3CCCC3C2)sc1C (configuration not stated) | -18 | 2.59
CCc1nn(CC(=O)N2CCC3(CC2)OCCO3)c(=O)c2cc3ccccc3n12 | -10 | 1.23
O=c1[nH]ccc2ccc(-c3cccc4c3CCNC4)cc12 | 0 | -0.09
COc1ccc(CN2C[C@@H]3C[C@H](C2)c2ccc(-c4cncnc4)c(=O)n2C3)cc1 | -4 | 0.67
C=CCCC(CN1C[C@H]2CC=CC[C@H]2C1)Oc1ncc(F)cn1 (some centres not stated) | 75 | -13.95
Cn1nccc1C1=CC2CCC(C1)N2CC(=O)Nc1nccs1 (configuration not stated) | -13 | 1.68
CN1CCN(C(=O)COc2ccc3nncn3n2)C[C@H]1c1ccccc1 | -5 | 0.58
N#Cc1c(O)nc(O)c2c1CCN(Cc1ccccc1)C2 | 0 | –
Cc1cc(CC(=O)N2CCCN(Cc3ccc(Cl)cc3)CC2)n[nH]1 | -9 | 0.9
Cc1ccc(OC(=O)NC2CCC(CC3CCC(NC(=O)Oc4ccc(C)c(C)c4)CC3)CC2)cc1C (configuration not stated) | -14 | 1.45
CCN(CC)c1ccc2nc(NC(=O)c3ccn(C4CCOCC4)n3)sc2c1 | -2 | 0.23
COc1ccc(CN(C)C)c(OC(=O)N(C)C)c1 | 2 | -0.2
O=C1c2ccccc2CCC12CCNCC2 | -12 | 1.53
CN(Cc1cccnc1)C1CN(C(=O)Cc2cccnc2)C1 | -6 | 1.2

SMILES | % Inhibition [%] | Z score
CCc1ccc(-c2n[nH]c3c2C2(C(=O)O)CC(N3)c3cccc(OC)c3O2)cc1 (configuration not stated) | -1 | 0.17
OCC1(NCCc2ccccc2)CCCC1 | -9 | 1.16
O=c1oc2ccccc2n1Cc1cn(CCC2=CCCCC2)nn1 | -17 | 1.77
CC(C)(C)n1cnc(C(=O)N2C3CCC2C(CO)C3)n1 (configuration not stated) | 2 | -0.33
CCc1nc2ccccc2c(C(=O)N2CCN3CCC[C@H]3C2)c1C | 4 | -0.44
O=C(NCC1CN2CCCCC2CO1)Nc1ccccn1 (configuration not stated) | 7 | -1.13
Cn1cc(CN2C[C@@H]3C[C@H](C2)c2ccc(-c4cncnc4)c(=O)n2C3)c2ccccc21 | -6 | 1
CC#CCn1ncc(N2CCN(C)CC2)cc1=O | 0 | 0.04
CC(C)CN(Cc1cccnc1)C1CN(C(=O)Cc2cccnc2)C1 | 5 | -1.03
Cn1cc(C(=O)Nc2ccc(C(F)(F)F)cc2)c2cccnc21 | 9 | -0.88
CC[C@]1(O)CCCN(C(=O)CN2CCCC2=O)C1 | -14 | 1.25
C[C@H](C(=O)N1CCC(N(C(=O)C(F)(F)F)c2cccnc2)CC1)C1CC1 | 14 | -1.63
COc1ccc(C[C@H](C)NC(=O)C(C)(C)N)cc1OC | -5 | 0.6
CC(C)C(NCCC1OCCO1)C(O)c1ccccc1 (configuration not stated) | 3 | -0.56
O=C1C[C@]2(CCCNC2)Oc2ccccc21 | 10 | -1.42
CC(Cn1cc(Br)cn1)N[C@H](CO)c1ccccc1 (some centres not stated) | 6 | -0.82
OC[C@H](Cc1c[nH]c2ccccc12)NC1CCC1 | -8 | 0.75
Cc1[nH]c2ccccc2c1CCNCc1ccco1 | -14 | 2.65
Cc1n[nH]c([C@@H]2CCN(C(=O)COc3ccccc3)CCN2CC2CCOCC2)n1 | -12 | 1.77
N#Cc1ccc(N2CC3OCCN(Cc4ccccc4)C3C2)cn1 (configuration not stated) | -8 | 0.88
COc1ccccc1CNC(=O)C(Cl)(Cl)Cl | 8 | -0.96
CCn1cc(CC(=O)N2CCN(Cc3nc(COC)no3)CC2)c2ccccc21 | 7 | -0.82
CCC(C)N1CCC(N2CC(C)OC(C)C2)CC1 (configuration not stated) | -5 | 0.67

SMILES | % Inhibition [%] | Z score
CN1C2CCC1CC(Oc1cccc(C(F)(F)F)n1)C2 (configuration not stated) | 3 | -0.39
CCN1CCN(C(=O)COc2ccc3nc4n(c(=O)c3c2)CCC4)CC1 | -15 | 1.56
O[C@@]1(Cc2ccccc2)CN2CCC1CC2 | 35 | -1.04
CN(C)c1ncc(CN2C[C@H](O)C3(CC3)C2)s1 | -18 | 1.96
CC[C@H]1C=CCN1C(=O)Cn1nnnc1C1(NCc2ccccc2)CCCCC1 | 1 | -0.23
CC(C)(C)OC(=O)C1CC2CCC1N2Cc1csc(CC(=O)Nc2ccccc2)n1 (configuration not stated) | -6 | 1.11
Cn1nc2n(c1=O)CCN(S(=O)(=O)c1ccc3[nH]c(=O)oc3c1)CC2 | -10 | 1.14
CCCC1CCC(N[C@@H]2C=C[C@H](CO)C2)CC1 (some centres not stated) | -7 | 0.9
O=C(Cc1ccccc1)N1CCN([C@H](C(=O)N2CCc3ccccc3C2)C2CCCC2)CC1 | -5 | 0.44
CC1(C)CC(NC2CCCC2(C)CO)C(C)(C)O1 (configuration not stated) | -4 | 0.33
COc1ccccc1CC(=O)N1CCCC[C@H](N2CCCC2)C1 | -9 | 1.21
CC(O)CN1CCN(C(=O)Cc2ccncc2)C(C)C1 (configuration not stated) | -3 | 0.41
COC1COCCC1CC(=O)N1CCC(c2n[nH]c(=O)o2)CC1 (configuration not stated) | -8 | 1.26
C#CCN(C)C[C@H]1C[N@@]2CC[C@H]1C[C@@H]2CNS(=O)(=O)c1ccc(C)cc1 | 31 | -3.53
Cc1ccc([C@H](C)n2cnc3cccc(F)c3c2=O)cn1 | 5 | -0.74
O=C(c1ccc2ccccc2n1)N1CCC2(CC1)OCCO2 | -5 | 0.85
Cn1ncc(Cl)c1C(=O)N1CCN2CCC[C@H]2C1 | 5 | -0.76
CC(C)(C)N1C(=O)NC(=O)C2(Cc3ccccc3N3CCCC32)C1=O (configuration not stated) | 32 | -3.66
CC(C)C[C@H](CN)CC(=O)OCCC1CCCCO1 (some centres not stated) | 9 | -1.69
O=S(=O)(c1ccc(Cl)s1)N1C[C@H]1c1ccccc1 (some centres not stated) | -3 | 0.51
